From PubChem BioAssay (NCI)
“And” between values parts separate entries of the source, which are not always exact repeats. Equal values may be shown once.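 Tested at 5 concentrations; 48 h exposure; 96-well plates; endpoints linearly interpolated, else capped at highest concentration. Here, GI50 denotes the concentration required for 50% inhibition of growth. TGI is the concentration that stops growth completely.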

System: NCI-H322M lung
Experiment: growth of human tumour cells (NCI), 48 h

Row | SMILES | TGI | GI50
1 | O=C1CCCc2ccc3c(c21)CC1(Cc2ccccc2C1)C3 | 68.3 µM | 
2 | O=C1NC(=S)NC(=O)C1=C/C=C/c1ccc([N+](=O)[O-])cc1 | 49.8 µM | 
3 | CC1=C([Se]CC(OC(=O)[C@@H](CO)NC(=O)OC(C)(C)C)C(=O)NCCCCCC(=O)OCc2ccccc2)C(=O)c2ccccc2C1=O (some centres not stated) | 1.92 µM | 0.418 µM
4 | CCN(Cc1ccc(F)cc1)c1ccc(CO)c(OC)c1 | > 76.3 µM | 25.1 µM
5 | O=C(O[C@H]1CCN2C[C@H]3C[C@H](CN4C(=O)CCC[C@H]34)[C@@H]2C1)c1ccc(O)cc1 | > 100 µM | 
6 | CCC[CH2][Pb]([Cl])([CH2]CCC)[CH2]CCC | 0.0996 µM | 0.0306 µM
7 | CCN(CC)CCNc1ccc2nc(C)n3c4ccc(O)cc4c(=O)c1c23 | 14.6 µM | 
8 | CCOC(=O)c1cc(C2CCN(Cc3ccccc3)C2=S)c(C(=O)C=[N+]=[N-])[nH]1 (configuration not stated) | 93.5 µM | 
9 | NC(=O)C(=CNC(=S)Nc1cccc(C(F)(F)F)c1)C(N)=O | > 100 µM | 
10 | Fc1ccc(Nc2nc3ccccc3c3occc23)cc1 | 3.81 µM | 
11 | COc1ccc2nc(NC(=O)C(=O)NNC(=O)c3ccncc3)sc2c1 | > 100 µM | 
12 | C=CCCCCCCCCC(=O)O | 139 µM | 
13 | CC1(C)C2CCC(O)(C2)C1N (configuration not stated) | > 100 µM | 
14 | c1ccc(N/N=C2\NN=C(c3ccccc3)CS2)cc1 | > 100 µM | 
15 | COC(=O)[C@]12CC[C@@H](C)[C@H](C)[C@@H]1C1=CC[C@@H]3[C@@]4(C)C(C=O)=C[C@@](C)(COC(=O)/C=C/c5ccccc5)[C@@H]4[C@H](O)C[C@@]3(C)[C@]1(C)CC2 | 81.5 µM | 5.71 µM
16 | O=C(N/N=C/C=C/c1ccc([N+](=O)[O-])o1)c1ccc(C(=O)N/N=C/C=C/c2ccc([N+](=O)[O-])o2)cc1 | > 100 µM | 
17 | CCCCc1c2c(c(C)c3c1C(=O)OC3)Oc1ccccc1O2 | 27.5 µM | 
18 | COc1cc2c(cc1C)NC(=O)/C2=C\c1c[nH]c2ccccc12 | 31.1 µM | 14.3 µM
19 | CN(C)c1ccc(N=C2C=CC(=O)c3ccccc32)cc1 | 11.9 µM | 3.13 µM
20 | O=c1cc(-c2ccccc2)[nH]c2cc(Cl)ccc12 | > 100 µM | 
21 | O=C(/C=C/OC(=O)c1cccc(Cl)c1)c1ccc(Cl)cc1 | > 100 µM | > 56.4 µM
22 | CCOC(=O)C(C(O)c1ccc([N+](=O)[O-])cc1)P(=O)(OCC)OCC (configuration not stated) | > 100 µM | 
23 | COc1ccc(OC)c2c3c([nH]c12)C(=O)Nc1nc(N)nc(N)c1C3 | > 100 µM | 
24 | COC1=CC(=O)c2nc(Cl)ccc2C1=O | 24.8 µM | 11.7 µM
25 | Cn1cnc([N+](=O)[O-])c1Sc1nccc(=O)[nH]1 | > 100 µM | 
26 | COc1cc(/C=N/NC2=NCCCCN2)ccc1O | > 100 µM | 

Row | SMILES | TGI | GI50
27 | CC(=O)O[C@H]1CC2C=CC3C(CCC31)O2 (some centres not stated) | > 100 µM | 
28 | S=C=NC1CCC(c2cc3ccccc3s2)(N2CCCCC2)CC1 (configuration not stated) | 16 µM | 
29 | O=C1C(S(=O)(=O)c2ccccc2)=C(CS(=O)(=O)c2ccccc2)[C@@H](OCc2ccccc2)[C@@H]1OCc1ccccc1 | 93.8 µM | 
30 | S=C(N1CCN(c2ccccc2)CC1)N1CCN(c2ccccc2)CC1 | > 100 µM | 
31 | CCCCc1ccc(C#CC#Cc2ccc(CCCC)s2)s1 | > 100 µM | 
32 | COc1cnc2c(c1)C(=O)c1c-2n(CCCN2CCNCC2)c(=O)c2cc([N+](=O)[O-])ccc12 | 2.63 µM | 1.09 µM
33 | Cc1cccc2c1c(=O)c1c(O)cc(O)cc1n2C | > 100 µM | 
34 | CSCCC(C(=O)O)N(CC1(O)OCC(O)C(O)C1O)N=O (configuration not stated) | > 100 µM | 
35 | CC1=C2C3OC(=O)C(C)C3CCC2(C)C=CC1=Nc1ccccc1 (configuration not stated) | > 100 µM | 
36 | Cc1ccc(S(=O)(=O)Nc2ccc(-c3cc(-c4cccc(F)c4)c(C#N)c(N)n3)cc2)cc1 | 15.5 µM | 3.74 µM
37 | O=c1c2ccccc2[nH]c2c(Cl)cc(Cl)c(N3CCCCC3)c12 | > 100 µM | 
38 | O=C1O/C(=C\c2ccc(O)cc2)C(c2ccc(O)c(Cl)c2)=C1Cl | > 100 µM | 
39 | COc1ccc(C(=O)/C=C/c2ccc(OCC(=N)N)cc2)cc1 | 27.6 µM | 
40 | CCOC(=O)C(=O)NC12CC3CC(CC(C3)C1)C2 | > 100 µM | 
41 | CCOC(=O)C1(Br)S(=O)(=O)OCCOS1(=O)=O | > 100 µM | 
42 | COc1cccc2c1C(=O)c1c(O)c3c(c(O)c1C2=O)CC(O)(C(=O)CO)CC3OC1CC(N)C(O)C(C)O1 (configuration not stated) | 75 µg/mL and > 150 µg/mL | 44.9 µg/mL and 101 µg/mL
43 | CCOC(=O)C(Cc1ccc(N(CCCl)CCCl)cc1)NC(=O)CCCN1C(=O)CN=C(c2ccccc2)c2cc(Cl)ccc21 (configuration not stated) | > 100 µM | 
44 | Clc1c2ccccc2nc2c1[nH]c1ccccc12 | > 100 µM | 
45 | CSc1ccc(C(=O)/C=C/c2ccccc2Cl)cc1 | 35.9 µM | 16.9 µM
46 | CN1CCN(Cc2ccc(NC(=O)c3cncc(C#Cc4cnc(N)c5cnccc45)c3)cc2C(F)(F)F)CC1 | 6.42 µM | 0.177 µM
47 | COc1c2c(cc3c1C(=O)Cc1ccc4c(c1CN(C)CC3)OCO4)OCO2 | > 100 µM | 
48 | COCCn1cc(-c2csc(-c3c[nH]c4ccc(Br)cc34)n2)c2cccnc21 | > 100 µM | 11.8 µM
49 | Cc1nnc(Sc2nc(C#N)c(C#N)nc2Sc2nnc(C)s2)s1 | 37.7 µM | 
50 | N#CC1C(=O)NC(c2ccccc2[N+](=O)[O-])c2sc3c(F)cccc3c21 (configuration not stated) | 55.7 µM | 7.51 µM
51 | COc1cc2c[n+](C)c3c(c2cc1OC)Cc1cc2c(cc1-3)OCO2 | > 100 µM | 
52 | COc1ccc(N(C)c2nc(Cl)nc3cnn(C)c23)cc1 | > 100 µM | < 0.01 µM

Row | SMILES | TGI | GI50
53 | CN1CCN(Cc2cc(NC(=O)c3cccc(C#Cc4cccc5[nH]nc(N)c45)c3)cc(C(F)(F)F)c2)CC1 | 3.57 µM | 1.97 µM
54 | C=CCN(N=O)C(=O)NCCCCC(NC(C)=O)C(=O)NCc1ccccc1 (configuration not stated) | > 100 µM | 
55 | O=C1NC(c2cccc(OCc3ccccc3)c2)Nc2ccccc21 (configuration not stated) | 58.8 µM | 
56 | CN(C(=O)c1ccc(OCCCC(=O)O)c(Cl)c1Cl)C1CCCC1 | > 100 µM | 
57 | CCCCCCCCOC(=O)c1cc([N+](=O)[O-])c(Sc2ncnc3nc[nH]c23)c([N+](=O)[O-])c1 | 22.4 µM | 
58 | O=c1c2c(F)c(F)c(F)c(F)c2sc2nccn12 | 35 µM | 
59 | O=C(O)Cc1cccc2c(=O)c3cccc([N+](=O)[O-])c3oc12 | > 100 µM | 
60 | CCOCc1cc(=O)c2c(OC)cc3c(c2o1)CCC(C)(C)O3 | > 100 µM | 
61 | CCOC(=O)C(CCc1ncnc2c1ncn2Cc1ccccc1)(CCc1ncnc2c1ncn2Cc1ccccc1)C(=O)OCC | > 100 µM | 
62 | Cc1ccc2nc(NC(=O)/C(=N\NC(=S)NN)C3C(=O)NC(=S)NC3=O)sc2c1 | > 100 µM | 
63 | O=C1CC2SC(COCc3ccccc3)(CCN2Cc2ccccc2)C1 (configuration not stated) | > 100 µM | 
64 | CC1=CCC2CC1NC(=O)CCOCCC(=O)NC2(C)C (configuration not stated) | > 100 µM | 
65 | O=[N+]([O-])c1cccc(N=Nc2c(O)ccc3ccccc23)c1 | > 100 µM | 
66 | Cn1c2ccccc2c2c(=O)n(CCCC(=O)OC(=NC3CCCCC3)NC3CCCCC3)c3c(-c4ccccc4)nnn3c21 | > 100 µM | > 100 µM
67 | COC[C@H](C)N=CN1CCc2ccccc2C1(Cc1ccccc1)Cc1ccccc1 | 51.7 µM | 
68 | C=CC1(C)OC2(CCN(C(=O)OCC)CC2)OC1C (configuration not stated) | > 100 µM | 
69 | [N-]=[N+]=CC(=O)CCC(=O)N(c1ccccc1)c1ccccc1 | > 10 µM | 
70 | C/C(Cc1ccc2c(c1)OCO2)=N\NC(=O)C(C)Sc1nnc(SC(C)C(=O)N/N=C(\C)Cc2ccc3c(c2)OCO3)s1 (configuration not stated) | > 100 µM | 
71 | C/C(=N/Nc1nc(C)cc(=O)[nH]1)C(=O)O | > 100 µM | 
72 | Cc1ccc(N2C(N)=C(C#N)C(C#N)(C#N)C2c2ccccc2)cc1 (configuration not stated) | 33.3 µM | 
73 | CCn1ccc(NS(=O)(=O)c2ccc(N)cc2)nc1=O | > 100 µM | > 100 µM
74 | COc1ccc2c(c1)C(=O)c1c-2c(Nc2cccc(C(C)=O)c2)nc2ccccc12 | 85.3 µM | 24 µM
75 | c1ccc([P+](CCCCCC[P+](c2ccccc2)(c2ccccc2)c2ccccc2)(c2ccccc2)c2ccccc2)cc1 | 74 µM | 
76 | N#Cc1ccc(C2NN=CC23C(=O)c2ccccc2OC3c2ccccc2)cc1 (configuration not stated) | > 100 µM | 
77 | CCCN(CCC)C1=Nc2ccccc2-n2cnnc2C1 | > 100 µM | 
78 | CC1CN=C(Nc2ccc(F)c(Cl)c2)S1 (configuration not stated) | > 100 µM | 

Row | SMILES | TGI | GI50
79 | Nc1nc(=S)n(-c2ccc(Cl)cc2)c2nc3ccccc3cc12 | > 100 µM | 
80 | CC1(C)N=C(N)N=C(N)N1c1cccc(Br)c1 | > 100 µM | 7.26 µM
81 | CCCCCCCCCCCCCB(O)O | > 100 µM | 
82 | COC(=O)/C(=N\NC(N)=O)C(C(=O)C=C(C)C)C(=O)C(=O)Nc1ccc(Cl)c(Cl)c1 (configuration not stated) | > 100 µM | 
83 | CCN1CCC(O)(c2ccc(O)cc2)C(C(=O)c2ccc(O)cc2)C1 (configuration not stated) | > 100 µM | 
84 | CSc1c(C#N)c(S)[nH]c(=O)c1C#N | > 100 µM | 
85 | N#Cc1c(O)c2ccccc2[nH]c1=O | > 100 µM | 
86 | CCCCCC[C@H](C)NC(=O)c1ccc(Nc2nc3ccccc3c3occc23)cc1 | 55.7 µM | 5.37 µM
87 | O=[N+]([O-])c1ccc(Sc2ccncn2)c([N+](=O)[O-])c1 | 19.8 µM | 6.72 µM
88 | CCOC(=O)C(=O)Nc1ccccc1C(C)C | > 100 µM | 
89 | C=C1C(=O)O[C@H]2[C@H]1CC/C(COC(=O)NCCCCCCCCNC(=O)OC/C1=C/CC[C@@]3(C)O[C@H]3[C@H]3OC(=O)C(=C)[C@@H]3CC1)=C\CC[C@@]1(C)O[C@@H]21 | 4.59 µM | 2.14 µM
90 | CC[C@@]1(CCC(=O)NCCc2c[nH]c3ccccc23)CCC(=O)N2CCc3c([nH]c4ccccc34)[C@H]21 | > 100 µM | 
91 | Cc1c(F)c(NC(=O)CN(C)C)c2c(=O)cc(-c3ccc(NC(=O)CN(C)C)c(F)c3)oc2c1F | 31.8 µM | 
92 | COC(=O)C1(C)NCCc2c1[nH]c1ccccc21 (configuration not stated) | > 100 µM | 
93 | O=C(C/C=C/c1ccccc1)c1ccccc1 | > 100 µM | 
94 | COC(=O)C(/C(=N\NC(N)=S)C(=O)Nc1ccccc1[N+](=O)[O-])c1cnc2ccccc2n1 (configuration not stated) | > 100 µM | 
95 | Cc1ccccc1C1CC(c2ccccc2)=NO1 (configuration not stated) | > 100 µM | 
96 | Cc1ccc(S(=O)(=O)N2CCc3ccc(O)c4c3C2Cc2ccc3c(c2-4)OCO3)cc1 (configuration not stated) | 99.2 µM | 4.05 µM
97 | N#Cc1c(N2CCN(c3ccc([N+](=O)[O-])cc3)CC2)[n+](=O)c2ccccc2n1[O-] | > 100 µM | 
98 | C/C(=N\NC(=O)CC(=O)N(C(=O)c1ccc(Cl)cc1)c1ccc(C)cc1)c1ccccc1O | > 100 µM | 
99 | CCOC(=O)C(OP(=O)(OCC)OCC)C(F)(F)F (configuration not stated) | > 100 µM | 
100 | CCCC(=O)NC(Nc1ccc(S(=O)(=O)Nc2ccc(OC)nn2)cc1)(C(F)(F)F)C(F)(F)F | > 100 µM | 
101 | Cc1cc(Cl)ccc1NC(=O)C(=O)C(C(=O)c1ccccc1)C1OC(=O)c2ccccc21 (configuration not stated) | > 100 µM | 
102 | O=c1c2cc(I)ccc2nc(-c2cccs2)n1/N=C/c1ccccc1 | > 100 µM | 
